# Assay results taken from the supplement of paper PMC8728848.
# The other results are listed elsewhere or left out.
# B1: FliC (Pseudomonas aeruginosa), P72151 (protein)
# chain: MALTVNTNIASLNTQRNLNASSNDLNTSLQRLTTGYRINSAKDDAAGLQISNRLSNQISGLNVATRNANDGISLAQTAEGALQQSTNILQRIRDLALQSANGSNSDADRAALQKEVAAQQAELTRISDTTTFGGRKLLDGSFGTTSFQVGSNAYETIDISLQNASASAIGSYQVGSNGAGTVASVAGTATASGIASGTVNLVGGGQVKNIAIAAGDSAKAIAEKMDGAIPNLSARARTVFTADVSGVTGGSLNFDVTVGSNTVSLAGVTSTQDLADQLNSNSSKLGITASINDKGVLTITSATGENVKFGAQTGTATAGQVAVKVQGSDGKFEAAAKNVVAAGTAATTTIVTGYVQLNSPTAYSVSGTGTQASQVFGNASAAQKSSVASVDISTADGAQNAIAVVDNALAAIDAQRADLGAVQNRFKNTIDNLTNISENATNARSRIKDTDFAAETAALSKNQVLQQAGTAILAQANQLPQAVLSLLR
# Tests used:
# Test in all cases: glycan array binding signal (z-score within array); higher = stronger binding
# Conditions in all cases: glycan notation: IUPAC condensed, linker removed
# [1] = biological target: Fuc(a1-2)Gal6S(b1-3)GlcNAc
# Method in brief: (§1)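 Columns mapping to the same glycan were averaged after glycan names were converted to IUPAC-condensed notation. The data come from 3228 arrays in the Consortium for Functional Glycomics database, limited to those with an available protein sequence. Binding is reported as a within-array Z-score averaged across arrays of one protein sequence and across linkers.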
# [2] = biological target: Fuc(a1-2)Gal6S(b1-3)GlcNAc6S
# Method in brief: as §1
# [3] = biological target: Fuc(a1-2)Gal6S(b1-4)Glc
# Method in brief: as §1
# [4] = biological target: Fuc(a1-2)Gal6S(b1-4)Glc6S
# Method in brief: as §1
# [5] = biological target: Fuc(a1-2)[Gal(a1-3)]Gal
# Method in brief: as §1
# [6] = biological target: Fuc(a1-2)[Gal(a1-3)]Gal(b1-3)GalNAc
# Method in brief: as §1
# [7] = biological target: Fuc(a1-2)[Gal(a1-3)]Gal(b1-3)GalNAc(b1-3)Gal(a1-4)Gal(b1-4)Glc
# Method in brief: as §1
# [8] = biological target: Fuc(a1-2)[Gal(a1-3)]Gal(b1-3)GlcNAc
# Method in brief: as §1
# [9] = biological target: Fuc(a1-2)[Gal(a1-3)]Gal(b1-3)GlcNAc(b1-2)Man(a1-3)[Fuc(a1-2)[Gal(a1-3)]Gal(b1-3)GlcNAc(b1-2)Man(a1-6)]Man(b1-4)GlcNAc(b1-4)GlcNAc
# Method in brief: as §1
# [10] = biological target: Fuc(a1-2)[Gal(a1-3)]Gal(b1-3)GlcNAc(b1-2)Man(a1-3)[Fuc(a1-2)[Gal(a1-3)]Gal(b1-3)GlcNAc(b1-2)Man(a1-6)]Man(b1-4)GlcNAc(b1-4)[Fuc(a1-6)]GlcNAc
# Method in brief: as §1
# [11] = biological target: Fuc(a1-2)[Gal(a1-3)]Gal(b1-3)GlcNAc(b1-3)GalNAc
# Method in brief: as §1
# [12] = biological target: Fuc(a1-2)[Gal(a1-3)]Gal(b1-3)GlcNAc(b1-6)GalNAc
# Method in brief: as §1
# [13] = biological target: Fuc(a1-2)[Gal(a1-3)]Gal(b1-4)Glc
# Method in brief: as §1
# [14] = biological target: Fuc(a1-2)[Gal(a1-3)]Gal(b1-4)GlcNAc
# Method in brief: as §1
# [15] = biological target: Fuc(a1-2)[Gal(a1-3)]Gal(b1-4)GlcNAc(b1-2)Man
# Method in brief: as §1
# [16] = biological target: Fuc(a1-2)[Gal(a1-3)]Gal(b1-4)GlcNAc(b1-2)Man(a1-3)[Fuc(a1-2)[Gal(a1-3)]Gal(b1-4)GlcNAc(b1-2)Man(a1-6)]Man(b1-4)GlcNAc(b1-4)GlcNAc
# Method in brief: as §1
# [17] = biological target: Fuc(a1-2)[Gal(a1-3)]Gal(b1-4)GlcNAc(b1-2)Man(a1-3)[Fuc(a1-2)[Gal(a1-3)]Gal(b1-4)GlcNAc(b1-2)Man(a1-6)]Man(b1-4)GlcNAc(b1-4)[Fuc(a1-6)]GlcNAc
# Method in brief: as §1
# [18] = biological target: Fuc(a1-2)[Gal(a1-3)]Gal(b1-4)GlcNAc(b1-3)GalNAc
# Method in brief: as §1
# [19] = biological target: Fuc(a1-2)[Gal(a1-3)]Gal(b1-4)GlcNAc(b1-6)GalNAc
# Method in brief: as §1
# [20] = biological target: Fuc(a1-2)[Gal(a1-3)]Gal(b1-4)[Fuc(a1-3)]Glc
# Method in brief: as §1
# [21] = biological target: Fuc(a1-2)[Gal(a1-3)]Gal(b1-4)[Fuc(a1-3)]GlcNAc
# Method in brief: as §1
# [22] = biological target: Fuc(a1-2)[Gal(a1-3)]Gal(b1-4)[Fuc(a1-3)]GlcNAc(b1-3)GalNAc
# Method in brief: as §1
# [23] = biological target: Fuc(a1-2)[Gal(a1-4)]Gal(b1-4)GlcNAc
# Method in brief: as §1
# [24] = biological target: Fuc(a1-2)[GalNAc(a1-3)]Gal
# Method in brief: as §1
# [25] = biological target: Fuc(a1-2)[GalNAc(a1-3)]Gal(b1-3)GalNAc(a1-3)[Fuc(a1-2)]Gal(b1-4)GlcNAc
# Method in brief: as §1
# [26] = biological target: Fuc(a1-2)[GalNAc(a1-3)]Gal(b1-3)GalNAc(b1-3)Gal(a1-4)Gal(b1-4)Glc
# Method in brief: as §1
# [27] = biological target: Fuc(a1-2)[GalNAc(a1-3)]Gal(b1-3)GlcNAc
# Method in brief: as §1
# [28] = biological target: Fuc(a1-2)[GalNAc(a1-3)]Gal(b1-3)GlcNAc(b1-2)Man(a1-3)[Fuc(a1-2)[GalNAc(a1-3)]Gal(b1-3)GlcNAc(b1-2)Man(a1-6)]Man(b1-4)GlcNAc(b1-4)GlcNAc
# Method in brief: as §1
# [29] = biological target: Fuc(a1-2)[GalNAc(a1-3)]Gal(b1-3)GlcNAc(b1-2)Man(a1-3)[Fuc(a1-2)[GalNAc(a1-3)]Gal(b1-3)GlcNAc(b1-2)Man(a1-6)]Man(b1-4)GlcNAc(b1-4)[Fuc(a1-6)]GlcNAc
# Method in brief: as §1
# [30] = biological target: Fuc(a1-2)[GalNAc(a1-3)]Gal(b1-3)GlcNAc(b1-3)GalNAc
# Method in brief: as §1
# [31] = biological target: Fuc(a1-2)[GalNAc(a1-3)]Gal(b1-3)GlcNAc(b1-6)GalNAc
# Method in brief: as §1
# [32] = biological target: Fuc(a1-2)[GalNAc(a1-3)]Gal(b1-4)Glc
# Method in brief: as §1
# [33] = biological target: Fuc(a1-2)[GalNAc(a1-3)]Gal(b1-4)GlcNAc
# Method in brief: as §1
# [34] = biological target: Fuc(a1-2)[GalNAc(a1-3)]Gal(b1-4)GlcNAc(b1-2)Man
# Method in brief: as §1
# [35] = biological target: Fuc(a1-2)[GalNAc(a1-3)]Gal(b1-4)GlcNAc(b1-2)Man(a1-3)[Fuc(a1-2)[GalNAc(a1-3)]Gal(b1-4)GlcNAc(b1-2)Man(a1-6)]Man(b1-4)GlcNAc(b1-4)GlcNAc
# Method in brief: as §1
# [36] = biological target: Fuc(a1-2)[GalNAc(a1-3)]Gal(b1-4)GlcNAc(b1-2)Man(a1-3)[Fuc(a1-2)[GalNAc(a1-3)]Gal(b1-4)GlcNAc(b1-2)Man(a1-6)]Man(b1-4)GlcNAc(b1-4)[Fuc(a1-6)]GlcNAc
# Method in brief: as §1
# [37] = biological target: Fuc(a1-2)[GalNAc(a1-3)]Gal(b1-4)GlcNAc(b1-3)Gal(b1-4)GlcNAc
# Method in brief: as §1
# [38] = biological target: Fuc(a1-2)[GalNAc(a1-3)]Gal(b1-4)GlcNAc(b1-3)Gal(b1-4)GlcNAc(b1-3)Gal(b1-4)GlcNAc
# Method in brief: as §1
# [39] = biological target: Fuc(a1-2)[GalNAc(a1-3)]Gal(b1-4)GlcNAc(b1-3)GalNAc
# Method in brief: as §1
# [40] = biological target: Fuc(a1-2)[GalNAc(a1-3)]Gal(b1-4)GlcNAc(b1-3)[Fuc(a1-2)[GalNAc(a1-3)]Gal(b1-4)GlcNAc(b1-6)]GalNAc
# Method in brief: as §1
# [41] = biological target: Fuc(a1-2)[GalNAc(a1-3)]Gal(b1-4)GlcNAc(b1-6)GalNAc
# Method in brief: as §1
# [42] = biological target: Fuc(a1-2)[GalNAc(a1-3)]Gal(b1-4)[Fuc(a1-3)]GlcNAc
# Method in brief: as §1
# [43] = biological target: Fuc(a1-2)[GalNAc(a1-3)]Gal(b1-4)[Fuc(a1-3)]GlcNAc(b1-3)GalNAc
# Method in brief: as §1
# [44] = biological target: Fuc(a1-2)[GalNAc(a1-4)]Gal(b1-4)GlcNAc
# Method in brief: as §1
# [45] = biological target: Fuc(a1-2)[GalNAc(b1-3)]Gal
# Method in brief: as §1
binder,measurement,setting,value
B1,glycan array binding signal (z-score),[1],-0.163
same,glycan array binding signal (z-score),[2],-0.159
same,glycan array binding signal (z-score),[3],-0.178
same,glycan array binding signal (z-score),[4],-0.135
same,glycan array binding signal (z-score),[5],-0.231
same,glycan array binding signal (z-score),[6],-0.178
same,glycan array binding signal (z-score),[7],-0.185
same,glycan array binding signal (z-score),[8],-0.118
same,glycan array binding signal (z-score),[9],-0.159
same,glycan array binding signal (z-score),[10],-0.129
same,glycan array binding signal (z-score),[11],-0.211
same,glycan array binding signal (z-score),[12],0.094
same,glycan array binding signal (z-score),[13],-0.182
same,glycan array binding signal (z-score),[14],-0.168
same,glycan array binding signal (z-score),[15],-0.226
same,glycan array binding signal (z-score),[16],-0.158
same,glycan array binding signal (z-score),[17],-0.147
same,glycan array binding signal (z-score),[18],-0.098
same,glycan array binding signal (z-score),[19],-0.26
same,glycan array binding signal (z-score),[20],-0.172
same,glycan array binding signal (z-score),[21],-0.132
same,glycan array binding signal (z-score),[22],-0.228
same,glycan array binding signal (z-score),[23],-0.105
same,glycan array binding signal (z-score),[24],-0.06
same,glycan array binding signal (z-score),[25],-0.142
same,glycan array binding signal (z-score),[26],-0.139
same,glycan array binding signal (z-score),[27],-0.063
same,glycan array binding signal (z-score),[28],-0.1
same,glycan array binding signal (z-score),[29],-0.212
same,glycan array binding signal (z-score),[30],-0.175
same,glycan array binding signal (z-score),[31],2.71
same,glycan array binding signal (z-score),[32],-0.232
same,glycan array binding signal (z-score),[33],-0.147
same,glycan array binding signal (z-score),[34],0.454
same,glycan array binding signal (z-score),[35],-0.1
same,glycan array binding signal (z-score),[36],-0.174
same,glycan array binding signal (z-score),[37],-0.129
same,glycan array binding signal (z-score),[38],-0.186
same,glycan array binding signal (z-score),[39],-0.21
same,glycan array binding signal (z-score),[40],-0.127
same,glycan array binding signal (z-score),[41],-0.161
same,glycan array binding signal (z-score),[42],-0.212
same,glycan array binding signal (z-score),[43],-0.134
same,glycan array binding signal (z-score),[44],-0.188
same,glycan array binding signal (z-score),[45],-0.175
